Data published in article PMC7612511 (Advanced therapeutics, 2022).

Assays:
ColQ1 (collagenase unit) [1] = biological target: T1, ColQ1 (collagenase unit) (Bacillus cereus, UniProt B9J3S4); settings: bovine type I collagen 1 mg/mL, 50 ng ColQ1, 250 mM HEPES pH 7.5, 150 mM NaCl, 5 mM CaCl2, 5 × 10^−6 m ZnCl2, 25 °C, 3 h
ColQ1 (collagenase unit) [2] = biological target: T1, ColQ1 (collagenase unit); settings: 1 × 10^−9 M ColQ1, 2 × 10^−6 m FS1-1, 250 mM HEPES pH 7.5, 400 mM NaCl, 10 mM CaCl2, 10 × 10^−6 m ZnCl2, 5% DMSO, 25 °C, 1 h preincubation; linear regression in 40-60% inhibition range; thiocarbamate
ColQ1 (collagenase unit) [3] = biological target: T1, ColQ1 (collagenase unit); settings: bovine type I collagen 1 mg/mL, 50 ng ColQ1, 250 mM HEPES pH 7.5, 150 mM NaCl, 5 mM CaCl2, 5 × 10^−6 m ZnCl2, 25 °C, 3 h; remark: listed apart in the source

Row | SMILES | full inhibition at 75 × 10^-6 m (ColQ1 (collagenase unit) [1]) | IC50 (ColQ1 (collagenase unit) [2]) | full inhibition at 6 × 10^-6 m (ColQ1 (collagenase unit) [3])
1 | CC(=O)c1ccc(NC(=O)CP(=O)(O)O)cc1 [compound 1, Compound 1] | COL cleavage assay demonstrated a full collagenase inhibition | – | –
2 | NC(=O)SCC(=O)N(Cc1cccc(Cl)c1)c1ccc(Cl)c(Cl)c1 [compound 2, Compound 2] | – | 95 ± 4 × 10^−6 m | COL cleavage assay demonstrated a full collagenase inhibition
